# Assay results taken from PubChem BioAssay (EPA / NIEHS).
# For part of these data: What follows is the remainder of the data, with few or none of the hits. Results filed as inconclusive are left out. The entries are a selection whose mix differs from that of the whole data set. A structure can be active in one record and inactive in another. The source made the active and inactive calls. The calls were made as follows, unless noted: active = hit-call score of the fitted dose curve at least 0.9, where 1 is the maximum; inconclusive = response in the unintended direction; inactive = score below 0.9.
# Legend:
# [1] = target: human Retinoic Acid Receptor gamma (RARg), RARG (gene 5916) (UniProt P13631); experiment: ATG_RARg_TRANS: Attagene TRANS-FACTORIAL HepG2 Assay for human Retinoic Acid Receptor gamma (RARg) (AID 2283009)
# Chain of human Retinoic Acid Receptor gamma (RARg), RARG (gene 5916) (P13631 whole entry, looked up, the tested form may be a part): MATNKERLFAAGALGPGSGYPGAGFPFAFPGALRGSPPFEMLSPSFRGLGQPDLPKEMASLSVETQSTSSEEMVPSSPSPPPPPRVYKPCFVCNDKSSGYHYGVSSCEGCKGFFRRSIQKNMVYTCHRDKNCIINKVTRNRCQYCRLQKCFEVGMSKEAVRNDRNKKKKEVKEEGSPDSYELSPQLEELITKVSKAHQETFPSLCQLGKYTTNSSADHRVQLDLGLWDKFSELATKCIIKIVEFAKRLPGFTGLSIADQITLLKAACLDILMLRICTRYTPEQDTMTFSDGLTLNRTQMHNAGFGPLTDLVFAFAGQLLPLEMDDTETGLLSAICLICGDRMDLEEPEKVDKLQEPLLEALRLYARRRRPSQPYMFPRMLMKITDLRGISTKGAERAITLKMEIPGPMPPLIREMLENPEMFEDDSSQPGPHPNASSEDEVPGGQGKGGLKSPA
# Summary of the method: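 TRANS format measured activity of exogenous NR-GAL4 fusion (RARg) in transfected HepG2 liver cells after 24 h dosing. Induced reporter RNA was detected by RT-PCR/capillary electrophoresis fluorescence, analysed in the positive direction against DMSO.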
# [2] = target: Bile acid receptor (Homo sapiens) (UniProt Q96RI1); experiment: OT_FXR_FXRSRC1_1440: Odyssey Thera (OT) 24-hour HEK293T Protein-Complementation Assay for Farnesoid X receptor/SRC-1 Co-activator (AID 2283384)
# Chain of UniProt Q96RI1 (Q96RI1 whole entry, looked up, the tested form may be a part): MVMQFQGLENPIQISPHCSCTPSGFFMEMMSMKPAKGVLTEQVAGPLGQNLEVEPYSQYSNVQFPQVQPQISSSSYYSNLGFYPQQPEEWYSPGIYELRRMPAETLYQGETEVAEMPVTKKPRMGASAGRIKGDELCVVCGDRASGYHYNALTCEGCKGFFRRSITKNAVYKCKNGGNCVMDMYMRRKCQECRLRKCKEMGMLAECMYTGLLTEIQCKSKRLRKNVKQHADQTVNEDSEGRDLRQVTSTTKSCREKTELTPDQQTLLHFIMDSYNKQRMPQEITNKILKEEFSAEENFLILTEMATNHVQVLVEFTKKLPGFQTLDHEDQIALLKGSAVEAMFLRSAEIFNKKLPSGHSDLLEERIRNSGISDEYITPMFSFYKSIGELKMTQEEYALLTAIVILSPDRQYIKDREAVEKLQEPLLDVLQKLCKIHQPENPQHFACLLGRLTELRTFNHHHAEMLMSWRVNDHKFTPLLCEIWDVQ
# Summary of the method: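 Measures ligand-driven FXR–SRC-1 co-activator recruitment in HEK293T via fragment complementation, fluorescence intensity at 24 h. DMSO served as negative control and baseline for gain-of-signal fitting.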
# [3] = target: Retinoic acid receptor RXR-alpha (Homo sapiens) (UniProt P19793); experiment: ATG_RXRa_TRANS: Attagene TRANS-FACTORIAL HepG2 Assay for human Retinoid X Receptor alpha (RXRa) (AID 2283012)
# Chain of UniProt P19793 (P19793 whole entry, looked up, the tested form may be a part): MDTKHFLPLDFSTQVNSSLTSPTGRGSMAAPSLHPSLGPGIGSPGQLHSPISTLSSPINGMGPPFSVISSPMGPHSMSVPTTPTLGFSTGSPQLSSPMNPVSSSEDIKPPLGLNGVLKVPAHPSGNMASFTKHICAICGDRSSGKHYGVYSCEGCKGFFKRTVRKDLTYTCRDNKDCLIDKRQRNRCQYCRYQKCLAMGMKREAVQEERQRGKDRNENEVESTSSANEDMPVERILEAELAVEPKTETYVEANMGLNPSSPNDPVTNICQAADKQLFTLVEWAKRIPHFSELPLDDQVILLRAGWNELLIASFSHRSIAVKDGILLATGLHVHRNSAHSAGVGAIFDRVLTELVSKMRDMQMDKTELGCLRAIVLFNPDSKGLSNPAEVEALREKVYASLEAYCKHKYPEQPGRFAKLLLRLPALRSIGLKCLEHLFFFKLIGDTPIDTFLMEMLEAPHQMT
# Summary of the method: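 Measures exogenous chimeric NR-GAL4 activity in transfected HepG2 liver cells after 24 h of dosing. Induced reporter mRNA was detected by RT-PCR with capillary electrophoresis, and gain of signal was analysed against DMSO.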
# [4] = target: Nuclear receptor subfamily 1 group I member 2 (Homo sapiens) (UniProt O75469); experiment: ATG_PXR_TRANS: Attagene TRANS-FACTORIAL HepG2 Assay for human Pregnane X Receptor (PXR) (AID 2283008)
# Chain of UniProt O75469 (O75469 whole entry, looked up, the tested form may be a part): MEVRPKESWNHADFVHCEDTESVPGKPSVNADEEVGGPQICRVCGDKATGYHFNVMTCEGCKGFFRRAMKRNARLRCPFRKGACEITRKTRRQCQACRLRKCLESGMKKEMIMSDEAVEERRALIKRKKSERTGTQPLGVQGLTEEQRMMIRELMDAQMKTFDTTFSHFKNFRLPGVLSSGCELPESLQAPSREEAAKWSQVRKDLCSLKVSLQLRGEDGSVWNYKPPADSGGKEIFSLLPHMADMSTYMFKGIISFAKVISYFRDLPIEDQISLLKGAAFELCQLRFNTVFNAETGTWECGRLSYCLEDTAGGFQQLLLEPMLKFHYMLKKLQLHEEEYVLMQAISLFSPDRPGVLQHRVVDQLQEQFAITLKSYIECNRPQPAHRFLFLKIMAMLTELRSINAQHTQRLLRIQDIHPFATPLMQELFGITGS
# Summary of the method: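 Transient HepG2 transfectants carrying multiplexed reporter transcription units; PXR activity read through a Gal4 chimera. 24 h exposure. RT-PCR/CE fluorescence; upward curve fit referenced to DMSO.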
# [5] = target: human Retinoid X Receptor beta (RXRb), RXRB (gene 6257) (UniProt P28702); experiment: ATG_RXRb_TRANS: Attagene TRANS-FACTORIAL HepG2 Assay for human Retinoid X Receptor beta (RXRb) (AID 2283013)
# Chain of UniProt P28702 (P28702 whole entry, looked up, the tested form may be a part): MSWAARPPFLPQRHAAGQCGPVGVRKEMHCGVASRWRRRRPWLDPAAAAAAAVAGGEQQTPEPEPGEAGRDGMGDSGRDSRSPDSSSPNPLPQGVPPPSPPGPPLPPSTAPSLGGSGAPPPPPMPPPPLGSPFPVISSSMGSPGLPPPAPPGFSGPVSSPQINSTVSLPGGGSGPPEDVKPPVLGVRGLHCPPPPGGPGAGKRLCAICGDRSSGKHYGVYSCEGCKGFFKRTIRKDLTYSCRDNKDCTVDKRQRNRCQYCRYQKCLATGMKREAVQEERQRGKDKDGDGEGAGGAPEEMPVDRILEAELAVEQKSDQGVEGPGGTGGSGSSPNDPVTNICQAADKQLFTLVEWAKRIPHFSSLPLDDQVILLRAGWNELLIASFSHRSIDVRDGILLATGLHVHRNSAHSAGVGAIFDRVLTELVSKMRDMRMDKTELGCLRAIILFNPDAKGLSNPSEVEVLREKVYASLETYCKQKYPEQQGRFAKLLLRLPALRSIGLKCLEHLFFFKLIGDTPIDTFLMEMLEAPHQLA
# Summary of the method: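 Chimeric receptor-Gal4 activity was assessed in transiently transfected human HepG2 cells after 24 h exposure. Transcripts from GAL4-UAS reporters were quantified by fluorescent RT-PCR and capillary electrophoresis, with DMSO as negative control and baseline.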
# [6] = read-out: Interleukin-1 alpha (IL1a), IL1A (gene 3552); experiment: BSK_KF3CT_IL1a: BioMAP Diversity Plus: KF3CT Assay for Interleukin-1 alpha (IL1a) Biomarker Activity (AID 2283070; active = hit-call score of the fitted dose curve at least 0.9, where 1 is the maximum; inactive = score below 0.9); settings: actives raise or lower the signal; primary human keratinocytes with fibroblasts
# Summary of the method: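 IL-1a was detected by ELISA 24 h after chemical treatment of a co-culture of human skin keratinocytes and foreskin fibroblasts. Gain or loss of signal was fitted against the DMSO baseline.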
# [7] = target: Estrogen receptor (Homo sapiens) (UniProt P03372); experiment: OT_ERa_GFPERaERE_0120: Odyssey Thera (OT) 2-hour HeLa Transcription Induction Assay for Estrogen Receptor (AID 2283382)
# Summary of the method: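 Cells (human cervical HeLa) receive compound, incubate 2 hours, then are imaged for fluorescent reporter induction. Images are quantified by high content analysis, and activity is fitted as gain of signal against DMSO.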
# [8] = target: Bile acid receptor (Homo sapiens) (UniProt Q96RI1); experiment: OT_FXR_FXRSRC1_0480: Odyssey Thera (OT) 8-hour HEK293T Protein-Complementation Assay for Farnesoid X receptor/SRC-1 Co-activator (AID 2283383)
# Summary of the method: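 PCA, HEK293T, 8 h compound exposure; FXR–SRC-1 binding reconstitutes split reporter; fluorescence intensity; positive-direction fit vs DMSO.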
# [9] = CEETOX_H295R_ESTRADIOL: CeeTox H295R High-throughput Steroidogenesis Assay for Estradiol (AID 2283440; active = hit-call score of the fitted dose curve at least 0.9, where 1 is the maximum; inactive = score below 0.9;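 also: estradiol secreted into medium quantified by LC-MS/MS after dansyl derivatisation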); settings: actives raise or lower the signal
# Summary of the method: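 H295R cells pre-stimulated 48 h with 10 uM forskolin, then exposed 48 h to chemical in 0.1% DMSO. Medium estradiol quantified by MTBE extraction, dansyl derivatisation and HPLC-MS/MS; bidirectional fit versus DMSO; MTT viability required >/=70%.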
# [10] = CEETOX_H295R_PROG: CeeTox H295R High-throughput Steroidogenesis Assay for Progesterone (PROG) (AID 2283442; active = hit-call score of the fitted dose curve at least 0.9, where 1 is the maximum; inactive = score below 0.9;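 also: human H295R adrenal cells primed with 10 µM forskolin before dosing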); settings: actives raise or lower the signal
# Summary of the method: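 H295R adrenal cells prestimulated 48 h with 10 uM forskolin, then exposed 48 h to test chemical in 0.1% DMSO. Progesterone in medium quantified by HPLC-MS/MS after MTBE extraction; viability checked by MTT in same wells.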
# [11] = read-out: DNA damage-inducible transcript 3 (DDIT3), DDIT3 (gene 1649); experiment: LTEA_HepaRG_DDIT3: Life Technologies and Expression Analysis (LTEA) Assay for DNA damage-inducible transcript 3 (DDIT3) using HepaRG (AID 2283488; active = hit-call score of the fitted dose curve at least 0.9, where 1 is the maximum; inactive = score below 0.9); settings: actives raise or lower the signal; mRNA level, 48 h
# Summary of the method: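 Cells are human HepaRG liver cells treated for 48 h with eight half-log concentrations up to 100 uM in 0.5% DMSO. Transcript levels come from qRT-PCR normalized to three housekeeping genes, with activity fitted in both directions relative to vehicle.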
# [12] = TOX21_p53_BLA_p3_viability: Viability Assessment in the Tox21 HCT-116 p53 Agonism Beta-lactamase Assay, Phase 3 (AID 2283593);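 also: cells exposed to compound for 16 h before reading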
# Summary of the method: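 Cellular ATP was quantified by CellTiter-Glo luminescence, read after 30 min at room temperature. Beforehand, HCT116 cells (4000/well) received compound 5 h post-seeding, 217-fold diluted from DMSO, then incubated 16 h at 37C.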
# [13] = Tanguay_ZF_120hpf_PFIN_legacy: (Legacy) Oregon State University Tanguay Lab 120 Hour Post-fertilization zebrafish Assay for Pectoral Fin Malformation (AID 2283648);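 also: each larva judged yes or no for fin defect by brightfield with dead larvae skipped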
# Summary of the method: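 Pectoral fin malformation was recorded as a binary endpoint at 120 hpf in wild-type Tropical 5D larvae, which had been dechorionated and exposed statically from 6 hpf at 28C in 0.64% DMSO. Dead embryos were excluded.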
# [14] = CCTE_Simmons_MITO_inhib_resp_rate: CCTE's HepG2 Seahorse XF Respirometric Screening Assay at Inhibited Respiratory State [full ETC block], Simmons Lab (AID 2284006; active = hit-call score of the fitted dose curve at least 0.9, where 1 is the maximum; inactive = score below 0.9); settings: actives raise or lower the signal
# Summary of the method: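 Seahorse respirometry, HepG2, 72 min total, 6-min mix/measure cycles. Cpd 125 nM–100 uM final ×7, n=3 biological. Sequential FCCP, rotenone/antimycin A; inhibited-respiration OCR, bidirectional fit vs DMSO.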
# [15] = target: Glucocorticoid receptor (Homo sapiens) (UniProt P04150); experiment: NVS_NR_hGR: NovaScreen (NVS) Nuclear Receptor Binding Assay for human Glucocorticoid Receptor (GR) (AID 2283363);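 also: activity is loss of specific radioligand binding signal relative to DMSO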
# Chain of UniProt P04150 (P04150 whole entry, looked up): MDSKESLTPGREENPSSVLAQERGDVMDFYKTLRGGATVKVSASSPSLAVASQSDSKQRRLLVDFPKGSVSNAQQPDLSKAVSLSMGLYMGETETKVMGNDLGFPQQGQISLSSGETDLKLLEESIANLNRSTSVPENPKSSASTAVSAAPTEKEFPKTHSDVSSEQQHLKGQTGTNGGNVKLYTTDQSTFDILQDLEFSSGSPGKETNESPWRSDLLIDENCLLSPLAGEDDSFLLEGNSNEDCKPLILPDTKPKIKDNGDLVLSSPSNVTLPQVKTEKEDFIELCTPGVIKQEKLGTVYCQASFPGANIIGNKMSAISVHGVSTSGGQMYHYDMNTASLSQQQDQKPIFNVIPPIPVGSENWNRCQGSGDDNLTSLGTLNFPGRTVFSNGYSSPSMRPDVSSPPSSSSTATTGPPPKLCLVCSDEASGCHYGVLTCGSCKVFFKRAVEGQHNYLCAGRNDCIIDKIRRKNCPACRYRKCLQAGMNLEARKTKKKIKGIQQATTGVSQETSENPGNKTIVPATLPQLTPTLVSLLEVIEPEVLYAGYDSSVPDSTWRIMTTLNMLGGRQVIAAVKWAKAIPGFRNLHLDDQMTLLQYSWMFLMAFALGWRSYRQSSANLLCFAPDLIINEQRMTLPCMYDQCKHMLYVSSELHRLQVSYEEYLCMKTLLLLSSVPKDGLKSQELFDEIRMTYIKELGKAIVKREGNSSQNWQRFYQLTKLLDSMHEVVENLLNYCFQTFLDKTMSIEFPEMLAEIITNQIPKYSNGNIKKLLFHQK
# Summary of the method: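 Compounds first tested in duplicate at 25 uM, actives followed up in concentration series. Binding to extracted GR protein measured as competitive radioligand displacement, filter scintillation read 16 h post-dosing, normalised to DMSO.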
# [16] = CCTE_Deisenroth_5AR_NBTE_acceptor: CCTE's 5alpha-reductase NanoBRET Target Engagement Assay - Autofluorescence Screen, Deisenroth Lab (AID 2284321; active = hit-call score of the fitted dose curve at least 0.9, where 1 is the maximum; inactive = score below 0.9;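 also: compound fluorescence in the acceptor channel under 460 nm excitation flags autofluorescence artifacts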); settings: actives raise or lower the signal
# Summary of the method: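 Autofluorescence counter-screen: chemicals at an assumed nominal 100 uM in DMSO were scanned in three independent runs with 460 nm excitation. Gain or loss of acceptor signal was fitted bidirectionally against DMSO.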
# [17] = ACEA_AR_agonist_AUC_viability: ACEA Biosciences xCELLigence Real-Time Cell Analysis on Androgen Receptor Agonism for Viability (AID 2283775)
# Summary of the method: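 22Rv1 cells; impedance growth kinetics; 8-pt 1:4 dilutions from 100 uM top final, ≤0.5% DMSO; n = 2; 80 h read; AUC viability, loss-of-signal vs DMSO.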
# [18] = target: human RAR-related Orphan Receptor gamma (RORg), RORC (gene 6097) (UniProt P51449); experiment: ATG_RORg_TRANS: Attagene TRANS-FACTORIAL HepG2 Assay for human RAR-related Orphan Receptor gamma (RORg) (AID 2283011)
# Chain of UniProt P51449 (P51449 whole entry, looked up, the tested form may be a part): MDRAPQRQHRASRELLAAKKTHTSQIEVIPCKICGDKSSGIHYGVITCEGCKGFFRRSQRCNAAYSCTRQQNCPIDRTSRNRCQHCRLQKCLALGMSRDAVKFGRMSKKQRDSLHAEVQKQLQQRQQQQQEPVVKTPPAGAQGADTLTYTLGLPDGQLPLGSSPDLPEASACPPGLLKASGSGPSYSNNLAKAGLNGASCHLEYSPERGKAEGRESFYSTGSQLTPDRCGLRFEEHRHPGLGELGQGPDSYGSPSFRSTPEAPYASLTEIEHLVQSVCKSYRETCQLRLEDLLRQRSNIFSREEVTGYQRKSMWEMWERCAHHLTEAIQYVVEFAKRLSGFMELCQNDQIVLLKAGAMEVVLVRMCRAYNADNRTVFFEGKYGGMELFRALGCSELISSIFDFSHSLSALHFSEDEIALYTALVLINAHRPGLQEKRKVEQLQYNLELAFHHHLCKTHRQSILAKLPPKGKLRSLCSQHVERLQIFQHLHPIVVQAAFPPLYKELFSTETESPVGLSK
# Summary of the method: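 HepG2 cells transiently transfected with GAL4-UAS reporter units and chimeric RORg-Gal4 construct; after 24 h chemical exposure, reporter mRNA measured by RT-PCR with fluorescent capillary electrophoresis, gain of signal fitted against DMSO.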
# [19] = target: human RAR-related Orphan Receptor beta (RORb), RORB (gene 6096) (UniProt Q92753); experiment: ATG_RORb_TRANS: Attagene TRANS-FACTORIAL HepG2 Assay for human RAR-related Orphan Receptor beta (RORb) (AID 2283010)
# Chain of UniProt Q92753 (Q92753 whole entry, looked up, the tested form may be a part): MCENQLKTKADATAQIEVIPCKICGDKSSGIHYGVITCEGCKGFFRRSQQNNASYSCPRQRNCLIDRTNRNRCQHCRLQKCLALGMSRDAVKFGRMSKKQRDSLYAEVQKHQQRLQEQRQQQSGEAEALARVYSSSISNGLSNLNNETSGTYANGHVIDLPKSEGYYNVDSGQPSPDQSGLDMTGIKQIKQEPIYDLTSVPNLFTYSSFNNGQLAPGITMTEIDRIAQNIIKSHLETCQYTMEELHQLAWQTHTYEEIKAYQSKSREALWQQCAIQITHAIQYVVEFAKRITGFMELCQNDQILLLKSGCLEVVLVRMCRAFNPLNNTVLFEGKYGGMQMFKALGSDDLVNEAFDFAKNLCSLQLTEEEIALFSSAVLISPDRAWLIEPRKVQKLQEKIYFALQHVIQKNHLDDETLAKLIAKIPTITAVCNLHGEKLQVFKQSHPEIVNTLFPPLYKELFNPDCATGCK
# Summary of the method: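 Transfect HepG2 with multiple GAL4-UAS reporter transcription units; dose chemicals for 24 h; isolate RNA, reverse-transcribe and PCR-amplify reporter sequences; label, digest and resolve fragments by capillary electrophoresis; fit increases relative to DMSO.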
# [20] = target: Retinoic acid receptor RXR-alpha (Homo sapiens) (UniProt P19793); experiment: OT_NURR1_NURR1RXRa_0480: Odyssey Thera (OT) 8-hour HEK293T Protein Complementation Assay for Nurr1/retinoid X receptor (RXR) (AID 2283385)
# Summary of the method: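 Interaction of bait and prey reconstitutes a functional reporter, whose fluorescence was measured in HEK293T cells dosed with compound for 8 hours. Signal gain relative to DMSO defined the single endpoint.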
# [21] = target: Peroxisome proliferator-activated receptor gamma (Homo sapiens) (UniProt P37231); experiment: OT_PPARg_PPARgSRC1_1440: Odyssey Thera (OT) 24-hour Protein-Complementation Assay for Peroxisome Proliferator-activated Receptor Gamma/ SRC-1 Co-activator (AID 2283388)
# Chain of UniProt P37231 (P37231 whole entry, looked up, the tested form may be a part): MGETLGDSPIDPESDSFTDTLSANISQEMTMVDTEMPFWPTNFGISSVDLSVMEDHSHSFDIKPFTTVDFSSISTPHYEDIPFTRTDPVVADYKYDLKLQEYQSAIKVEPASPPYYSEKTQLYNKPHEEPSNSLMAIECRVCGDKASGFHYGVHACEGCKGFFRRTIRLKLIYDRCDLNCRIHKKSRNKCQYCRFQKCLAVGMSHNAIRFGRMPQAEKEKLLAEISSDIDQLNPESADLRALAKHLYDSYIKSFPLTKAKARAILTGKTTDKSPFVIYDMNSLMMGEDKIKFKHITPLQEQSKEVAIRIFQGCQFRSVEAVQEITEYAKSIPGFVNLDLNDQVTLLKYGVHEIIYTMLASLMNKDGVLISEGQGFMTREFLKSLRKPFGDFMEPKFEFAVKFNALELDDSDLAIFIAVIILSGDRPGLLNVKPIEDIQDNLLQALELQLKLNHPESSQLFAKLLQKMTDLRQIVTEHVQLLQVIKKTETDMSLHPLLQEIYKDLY
# Summary of the method: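 HEK293T transiently transfected with PPARg/SRC-1 split-Venus YFP fusions 48 h before dosing, then treated 24 h at 37C. Fixed cells imaged; nuclear/cytoplasmic 488 nm fluorescence ratio, gain of signal versus DMSO.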
# [22] = read-out: Keratin 19 (KRT19), KRT19 (gene 3880); experiment: LTEA_HepaRG_KRT19: Life Technologies and Expression Analysis (LTEA) Assay for Keratin 19 (KRT19) using HepaRG (AID 2283512; active = hit-call score of the fitted dose curve at least 0.9, where 1 is the maximum; inactive = score below 0.9); settings: actives raise or lower the signal; mRNA level, 48 h
# Summary of the method: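 Differentiated HepaRG cells in serum-free induction medium, exposed 48 h in duplicate to 8 half-log concentrations up to 100 uM in 0.5% DMSO. KRT19 mRNA by qRT-PCR, normalized to ACTB, GAPDH, POLR2A; bidirectional fit vs DMSO.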
# [23] = read-out: JUN Transcription Factor, JUN (gene 3725); experiment: LTEA_HepaRG_JUN: Life Technologies and Expression Analysis (LTEA) Assay for JUN Transcription Factor using HepaRG (AID 2283513; active = hit-call score of the fitted dose curve at least 0.9, where 1 is the maximum; inactive = score below 0.9); settings: actives raise or lower the signal; mRNA level, 48 h
# Summary of the method: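 Read-out is JUN transcript level by TaqMan qRT-PCR, normalized to ACTB, GAPDH and POLR2A, after 48 h chemical treatment of HepaRG cells. Concentration-response spanned eight half-log points up to 100 uM in 0.5% DMSO.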
# [24] = read-out: X-box binding protein 1 (XBP1), XBP1 (gene 7494); experiment: LTEA_HepaRG_XBP1: Life Technologies and Expression Analysis (LTEA) Assay for X-box binding protein 1 (XBP1) using HepaRG (AID 2283540; active = hit-call score of the fitted dose curve at least 0.9, where 1 is the maximum; inactive = score below 0.9); settings: actives raise or lower the signal; mRNA level, 48 h
# Summary of the method: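 Differentiated human HepaRG cells in serum-free induction medium exposed 48 h in duplicate to eight half-log concentrations up to 100 uM in 0.5% DMSO. XBP1 mRNA measured by Fluidigm TaqMan qRT-PCR, normalized to ACTB, GAPDH, POLR2A; bidirectional fitting against DMSO.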
# [25] = CCTE_Harrill_HTTr_Viability_MCF7: CCTE's 6-hour Cell Viability Assessment for the High-Throughput Transcriptomics (HTTr) Platform, in MCF-7 cells cultured in DMEM + 10% fetal bovine serum, Harrill Lab (AID 2284010; active = hit-call score of the fitted dose curve at least 0.9, where 1 is the maximum; inactive = score below 0.9)
# Summary of the method: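 Read-out is propidium iodide gain of signal by high-content imaging, reflecting membrane integrity loss. Measurements are taken 6 h after dosing, eight concentrations per chemical, with DMSO serving as baseline for bidirectional curve fitting.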
# [26] = CCTE_Shafer_MEA_dev_per_network_spike_spike_percent: CCTE's Neural Network Formation Assay for Percent of Spikes in a Network Spike, Shafer Lab (AID 2284054; active = hit-call score of the fitted dose curve at least 0.9, where 1 is the maximum; inactive = score below 0.9)
# Summary of the method: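 Metric: fraction of spikes falling in a 0.05 s window at network-spike peaks. Recordings were made on days 5, 7, 9 and 12 and collapsed by trapezoidal AUC. Cultures were rat cortical neurons on MEA plates, dosed continuously from plating, re-dosed at media changes.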
smiles,measurement,setting,value
Oc1ccc(Cl)cc1Cc1cc(Cl)ccc1O,outcome,[1],inactive
same,AC50,[2],active: 11.8 µM
CCCCCCCCCCO[C@@H]1O[C@H](CO)[C@@H](O)[C@H](O)[C@H]1O,outcome,[3],inactive
CCCCCCCCCC(=O)O,outcome,[3],inactive
CC(=O)C(C)=CC1C(C)=CCCC1(C)C (stereo not drawn),AC50,[4],active: 27 µM
C[C@]12C[C@H](O)[C@H]3[C@@H](CCC4=CC(=O)CC[C@@]43C)[C@@H]1CC[C@@H]2C(=O)CO,outcome,[3],inactive
same,outcome,[5],inactive
same,outcome,[6],inactive
same,outcome,[7],inactive
same,outcome,[8],inactive
same,outcome,[9],inactive
same,AC50,[10],active: 50 µM
same,outcome,[11],inactive
same,outcome,[12],inactive
same,outcome,[13],inactive
same,outcome,[14],inactive
CCCCCCCCCCCCCC[P+](CCCC)(CCCC)CCCC,outcome,[1],inactive
same,AC50,[15],active: 2.5 µM
same,AC50,[16],active: 13.3 µM
Nc1ccc2cc(S(=O)(=O)O)cc(O)c2c1N=Nc1ccccc1C(F)(F)F,outcome,[1],inactive
same,outcome,[17],inactive
Cc1[nH]c(=O)c(C#N)cc1-c1ccncc1,outcome,[5],inactive
Cc1oncc1C(=O)Nc1ccc(C(F)(F)F)cc1,outcome,[4],inactive
CCCCCCCCCCCC(=O)O,AC50,[5],active: 58.4 µM
O=C1c2ccccc2C(=O)N1SC1CCCCC1,outcome,[18],inactive
O=C1O[C@H]([C@@H](O)CO)C(O)=C1O,outcome,[19],inactive
same,outcome,[20],inactive
same,outcome,[21],inactive
same,outcome,[22],inactive
same,outcome,[23],inactive
same,outcome,[24],inactive
same,outcome,[25],inactive
same,outcome,[26],inactive
